Measured values: PubChem BioAssay AID1508623 (National Center for Advancing Translational Sciences (NCATS), 2021)
Hit rate of the full screen: of about 48,000 compounds, about 450 (0.94%) were called active. Not shown: some 19% with an inconclusive outcome. The call rests on the fitted dose curve; in most records, active means well fitted inhibition curve with a large enough effect; inconclusive means small, poorly fitted or top-dose-only effect; inactive means no such curve, though single readings can be large or run the other way. The list shows a part of the results.

Assay: Primary qHTS for Identification of Small Molecule Inhibitors of Huntingtin Promoter Activity; further: nearly all actives have a fitted effect of over 50% in size
Details: HEK293 HTT promoter firefly luciferase reporter (activity 0% = vehicle and -100% = no light), 24 h; series mostly up to 57.5 µM; activity change, negative = inhibition: at the top concentration
How it was run: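 Firefly luciferase readout (Dual-Glo, 10 min RT) after 24 h, 37 °C compound exposure (final up to 57.5 uM) of HEK293 reporter cells cultured 24 h beforehand; PTC124 at 50 uM final as control inhibitor; activity scaled vehicle 0%, zero RLU -100%.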

Activity change, negative = inhibition, inactive:
O=C(CSc1oc(-c2ccccc2)nc1S(=O)(=O)c1ccc(Br)cc1)NC1CCCCC1 -16.5%, COc1ccc(CNC(=O)c2ccc3c(c2)N(Cc2ccccc2F)C(=O)c2ccccc2S3=O)cc1 (stereo unspecified) -8.58%, CC(=O)Nc1nonc1-c1nnc(SCc2ccccc2C)n1C -28%, CCOc1nc(NC(=O)NS(=O)(=O)Oc2cccc(F)c2)nc(-c2ccccc2)n1 45.9%, COc1cccc(-c2ccc3c(N)c(C(=O)Nc4ccc(Cl)cc4F)sc3n2)c1 -11.4%, CCc1ccccc1NC(=O)Cc1ccc(-n2c(C)nc3cccnc32)cc1 -24.4%, COc1ccc(OC)c(NC(=O)Cc2c(C(=O)O)[nH]c3ccc(Cl)cc23)c1 -11.1%, Cc1ccc(C2=Nc3ccccc3N(CC(=O)NCc3ccc(Cl)cc3)C(=O)C2)cc1C 39.7%, O=C(c1ccc(Cl)cc1)N1CCCCC1CCN1CCOCC1 (stereo unspecified) -14.1%, Cc1ccc(C)c(N2CCN(C(=O)c3cc4c(=O)n(Cc5cccnc5)ccc4nc3C)CC2)c1 -16%, COc1ccc(NC(=O)CSc2nc3ccccc3n2CC(=O)N2CCCC(C)C2)cc1 (stereo unspecified) -17.7%, CCn1c(=O)c2cc(C(=O)Nc3cc(C)c(Cl)cc3OC)sc2c2ccccc21 0.871%, Cc1cccc(C(=O)Nc2c(-c3ccc(F)cc3)nc3ccccn23)c1 -18.8%, Cc1cc(C)n(-c2nc3cc(Cl)c(Cl)cc3nc2Nc2ccc(F)cc2C)n1 -14.4%, CC(=O)N(Cc1cccnc1)c1nc2c(C)cc(C)cc2s1 -25.4%, COc1ccc(CNC(=O)c2cc(-c3cccs3)nc3ccccc23)c(OC)c1 -4.26%, CCOC(=O)c1sc(NC(=O)c2nc3ncccn3n2)c(C(=O)OC(C)C)c1C -20.9%, CC1CCc2c(sc3nnn(Cc4ccccc4)c(=O)c23)C1 (stereo unspecified) -20.1%, Cc1ccc(-c2nc3ccccn3c2Nc2c(C)cccc2C)o1 -29.8%, Cc1ccc(NS(=O)(=O)c2ccc3[nH]c4c(c3c2)CCCC4)c(C)c1 -20.9%, CCc1ccc(Oc2nc3c(C)cccn3c(=O)c2/C=C(\C#N)c2nc3ccccc3[nH]2)cc1 -10.8%, COc1cc(-c2noc(CSc3nc(-c4ccccc4)cc(=O)[nH]3)n2)cc(OC)c1OC 7.19%, Cc1ccc(-n2nc(C)c3c(C)cc(=O)n(CC(=O)Nc4ccc(Br)cc4F)c32)cc1 2.82%, Cc1cc(=O)n2[nH]c(NCc3ccc(F)cc3)nc2n1 -28.9%, O=C(CCCn1c(=O)c2cccn2c2ccc(F)cc21)NCCc1ccccc1 -2.18%, Cc1ccc(Cl)cc1NC(=O)Nc1c(C)n(C)n(-c2ccccc2)c1=O -13.7%, CCOC(=O)CSc1nc2ccc(NC(=O)c3ccc(F)cc3)cc2s1 0.828%, COc1ccc(NC(=O)Cn2cc(S(=O)(=O)c3ccc(C)cc3)c(=O)c3ccccc32)cc1OC -11%, Cc1ccc(CSCC(=O)NCc2ccc(F)cc2)cc1 -20.3%, COc1ccc(-c2noc(-c3ccc(NCc4ccco4)c([N+](=O)[O-])c3)n2)cc1 -7.93%, CCc1nnc(SCC(=O)N(C)c2ccccc2)c2cc3sccc3n12 1.9%, CC1=C(C(=O)Nc2cccnc2)C(c2cccc(O)c2)n2nc(SCc3ccccc3)nc2N1 (stereo unspecified) -13.2%, CCCn1c(=O)n(-c2cc(Cl)c(OC)cc2OC)c(=O)c2c3c(sc21)CN(C(C)=O)CC3 2.62%, Cc1ccc([C@H]2Nc3ccc(S(=O)(=O)Nc4cccc(Cl)c4C)cc3[C@H]3C=CC[C@H]32)cc1 -16.9%, CCn1cc(CCC(=O)NCc2ccc(F)cc2)c2ccccc21 -10.9%, Cc1ccc(Nc2nnc(-c3ccc(C)c(S(=O)(=O)N4CCN(C)CC4)c3)c3ccccc23)c(C)c1 8.19% [at 11.5 µM], CCOc1ccccc1CNC(=O)C1CCN(C2=NS(=O)(=O)C(c3ccc(C)c(C)c3)=C2C)CC1 -22.1%, CCCN(C(=O)c1nn(-c2ccc(OC)c(Cl)c2)c(=O)c2c1c1ccccc1n2C)c1ccccc1F -6.33%, CCOc1ccc(C(=O)NCCc2csc(-c3ccc(C(F)(F)F)cc3)n2)cc1OCC 0.857%, COc1ccc(C(=O)Nc2cc(C(C)C)c(O)c(S(=O)(=O)c3ccc(OC)cc3)c2C)cc1 30.4%, COc1cccc(NC(=O)c2sc3nc(C)c(C(=O)Nc4ccc(C)cc4C)c(-c4sccc4C)c3c2N)c1 1.68%, O=c1c2oc3ccccc3c2n(Cc2cccc(F)c2)c(=O)n1Cc1ccco1 -11%, CC(C)c1ccc2oc(-c3cc(NC(=O)c4cccs4)ccc3Cl)nc2c1 -18.1%, Cc1ccc(Cl)cc1N1CCN(C(=O)C2CCCN(S(=O)(=O)c3ccc(Br)s3)C2)CC1 (stereo unspecified) -29.9%, COc1ccccc1NC(=O)CCn1cnc2ccccc2c1=O 13%, Cc1ccc2nc(-c3ccc(Cl)c(NC(=O)c4cccnc4)c3)oc2c1 2.2%, CC(=O)N1CCCc2cc(S(=O)(=O)N3CCCCC3)ccc21 -6.37%, Oc1ccc(Cl)c2cccnc12 -8.75%, CN(C(=O)c1cc2c(=O)oc3ccccc3c2s1)c1ccc(F)cc1 -6.53%, CCCCn1c2ccc(F)cc2c2nnc(SCCN3CCCCC3)nc21 -4.57%, Cc1ccc(OCC(=O)NCC(=O)OCc2cc(=O)n3nc(C)sc3n2)cc1 0.71%, CCOC(=O)C1CCN(S(=O)(=O)c2cc(-c3onc(C)c3C)ccc2OC)CC1 -28.3%, COc1ccc(CCNC(=O)CSc2ncc3c(n2)-c2cc(Cl)ccc2N(Cc2ccccc2)S3(=O)=O)cc1OC -18.4%, Cc1ccc(CNC(=O)c2nc(SCc3ccc(C)cc3)ncc2Cl)cc1 -7.55%, COc1ccc(CNC(=O)c2ccc3c(c2)N(Cc2cccc(Cl)c2)C(=O)c2ccccc2S3)c(OC)c1 -20.1%, COCCCNC(=O)CCn1c(=O)c2ccccc2n(CC(=O)Nc2c(C)cc(C)cc2C)c1=O -2.72%, Cc1ccc(-n2c(=O)c3cccnc3n2CC(=O)Nc2cccc(C)c2C)cc1 -5.21%, Cc1cccn2c(Nc3ccccc3)c(-c3ccc(N4CCOCC4)cc3)nc12 25.7%, CC(C)c1ccc(OC(=O)c2cc(-c3ccc4c(c3)OCCO4)on2)cc1 -12.7%, CCC(=O)c1ccc(O)cc1 -0.438%, CCOc1ccc(C(=O)Nc2nnc(SCc3cc(=O)c4cc(C)ccc4[nH]3)s2)cc1 16.3%, COc1cccc2sc(N(Cc3cccnc3)C(=O)COc3ccccc3)nc12 -26.7%, Cc1nn(-c2ccccc2)c(OC(=O)c2ccccc2F)c1S(=O)(=O)c1ccccc1 0.18%, COc1cccc(N2CCN(C(=O)c3cccc(NC(=O)c4nsc5ccccc45)c3)CC2)c1 -38.8%, Cc1ccc(C)c(NC(=O)CSc2nc(=O)n(CCN(C)C)c3c2CCC3)c1 -2.07%, COc1cc(CN(C(=O)c2ccccc2[N+](=O)[O-])c2ccccn2)cc(OC)c1OC -13.9%, Cc1sc2c(c1C)c(=O)n(CCc1ccccc1)c(=O)n2Cc1ccccc1Cl -4.01%, CCn1c(=O)c2cc(C(=O)N3CCN(c4cccc(Cl)c4)CC3)sc2c2ccccc21 -4.89%, CC1CCN(S(=O)(=O)c2ccc3c(c2)N(CC(=O)NCCCN2CCCCC2C)C(=O)CS3)CC1 (stereo unspecified) -13%, CCN(CC)S(=O)(=O)c1ccc2c(c1)nc(CN(C)C(=O)c1cccc(Cl)c1)n2C -25.8%, COc1ccc(CCNC(=O)C2=C(C)C(=O)OC23CCCCC3)c(OC)c1OC -16.5%, COc1ccc(OC)c(CNC(=O)C2CCN(S(=O)(=O)c3cn(C)cn3)CC2)c1 -3.89%, COc1cc(Cl)c(C)cc1NC(=O)c1cc(CN2CCOCC2)on1 1.68%, CCc1ccc(NC(=O)CCS(=O)(=O)c2ccc3c(c2)CCN3C(C)=O)cc1 -26.3%, Cc1cc(NC(=O)c2ccc3c(c2)N(Cc2cccc(Cl)c2)C(=O)c2ccccc2S3=O)ccc1Br (stereo unspecified) -10%, CCc1ccccc1NC(=O)Nc1cc(C(=O)NCc2ccc(C(C)C)cc2)ccc1N1CCCC1 -7.08%, Cc1ccc(S(=O)(=O)c2cn(Cc3ccccc3F)c3cc4c(cc3c2=O)OCO4)cc1 -16%, CC1CCCN(Cc2c(O)ccc3c(=O)c(Oc4ccccc4Cl)c(C(F)(F)F)oc23)C1 (stereo unspecified) -21.1%, Cc1ccc(SCC(=O)Nc2ccc3oc(-c4ccc(F)cc4)nc3c2)cc1 70.2%, COc1ccc(C(=O)NCc2nnc(SCC(=O)Nc3ccc(C)cc3)n2-c2ccccc2)cc1 -1.84%, CCc1ccc(CNC(=O)c2ccc(NC(=O)N3CCSc4ncccc43)cc2)cc1 -26.7%, CCc1nc2nc(C)cc(Nc3cc(Cl)ccc3OC)n2n1 1.36%, CCOc1ccc(CNC(=O)CCc2c(C)nn(-c3ccc(N4CCOCC4)nn3)c2C)cc1 -14.3%, CC(C)NC(=O)Cn1c(=O)nc(-c2ccccc2)c2ccccc21 -0.664%, CCOc1ccc(CCNC(=O)c2ccc(C)c(-n3cnc4cccnc43)c2)cc1 -10.3%, Cc1cccc(N(C)C(=O)CS(=O)(=O)c2cccc3nsnc23)c1 -5.69%, Cc1ccc(C(C)C)c(OCc2ccc(C(=O)Nc3ccc(S(N)(=O)=O)cc3C)o2)c1 -33.9%, COc1cccc(CNC(=O)c2ccc3c(Cl)c4c(nc3c2)CCCC4)c1 -3.76%, CCOc1ccc(Nc2cc(C)c(C#N)c3nc4ccccc4n23)cc1 -1.24%, CCCCN(CCCC)C(C(N)=O)c1ccc(OC)cc1 (stereo unspecified) 5.22%, O=C(OCc1ccco1)c1ccc2c(c1)N(Cc1ccc([N+](=O)[O-])cc1)C(=O)c1ccccc1S2 -30%, Cc1nc(-n2nc(C)c(CCC(C)C)c2C)sc1C(=O)Nc1cccc(Cl)c1C 1.5%, O=C(CN1C(=O)COc2ccc(S(=O)(=O)N3CCCC3)cc21)NCCc1ccc(Cl)cc1 -25.5%, CCOc1ccc2nc(N3CCN(C(=O)C(C)C)CC3)sc2c1 -11.5%, COc1cc(OC)c(C(=O)CCCN2CCCC2)c(OC)c1, COc1ccc2oc(=O)cc(CN3CCN(C(=O)c4ccccc4Br)CC3)c2c1 -19.1%
